Among all 360,000 compounds or so, about 520 (0.14%) were called active. Inconclusive means that the source gave no clear call. Such entries were picked first, then a sample of the others. The call rests on the fitted dose curve; in most records, active means well fitted inhibition curve with a large enough effect; inconclusive means small, poorly fitted or top-dose-only effect; inactive means no such curve, though single readings can be large or run the other way. No potency is given beside an inconclusive call; the fits are too rough.
These compounds were tested against Rap guanine nucleotide exchange factor 3 (Homo sapiens) (UniProt O95398) (assay: qHTS for Antagonist of cAMP-regulated guanine nucleotide exchange factor 3 (EPAC1): primary screen). Details: EPAC1 GEF assay, Rap1b-BODIPY-GDP exchange fluorescence; activity change, negative = inhibition: at 115 µM (top of the series).
Excerpt: In multi-cellular eukaryotic organisms, the effects of cAMP are transduced by two ubiquitously-expressed intracellular cAMP receptors, the classic protein kinase A/cAMP-dependent protein kinase (PKA/cAPK) and the more recently discovered exchange protein directly activated by cAMP/cAMP-regulated guanine nucleotide exchange factor (EPAC/cAMP-GEF). Both PKA and EPAC are ubiquitously expressed in all tissues, and an increase in intracellular cAMP levels will lead to the activation of both PKA and EPAC. Therefore, careful dissections of the individual role and relative contribution of EPAC and PKA within the overall cAMP signaling in various model systems are critical for further elucidating the mechanism of cAMP signaling. To date no EPAC-specific antagonists and agonist, as well as isoform-specific agonists have been reported, and developing EPAC-specific pharmacological probes to determine the physiological functions that EPAC play in the overall cAMP-mediated signaling remains a major challenge within the research field. Furthermore, identified regulators of EPAC may lead to new mechanism-based therapeutic strategies specifically targeting the EPAC / cAMP-signaling components as EPAC has been implicated to play important roles in major human pathological conditions such as diabetes, heart disease, and cancer. This qHTS will be used to screen the Molecular Libraries Small Molecule Repository (MLSMR) as a concentration-titration series using the NCGC unique quantitative screening (qHTS) platform to find inhibitors for EPAC1. In addition, this assay will also be used as a counterscreen for the EPAC2 qHTS. This fluorescent based assay is developed and validated for EPAC1 that measures exchange using EPAC effector Rap1 complex with BODIPY-GDP, a GDP analog with a tethered fluorophores. Inhibitors are identified by monitoring the change in fluorescence signal as the exchanged free BODIPY-GDP has a reduced fluorescence compared to Rap1-bound BODIPY-GDP. Decrease in signal (inhibition) is the desired outcome for the EPAC1 antagonist while no activity in this assay is desired for the EPAC2 antagonist counterscreen. de Rooij, J., Zwartkruis, F. J., Verheijen, M. H., Cool, R. H., Nijman, S. M., Wittinghofer, A., and Bos, J.L. (1998) Nature 396, 474-477 [2] Kawasaki, H., Springett, G. M., Mochizuki, N., Toki, S., Nakaya, M., Matsuda, M., Housman, D. E., and Graybiel, A. M. (1998) Science 282, 2275-2279 NIH Chemical Genomics Center [NCGC] NIH Molecular Libraries Probe Centers Network [MLPCN] MLPCN Grant: NS066510 Assay Submitter (PI): Xiaodong Cheng, The University of Texas, Medical Branch
Briefly, three uL of reagents (100 nM EPAC1, 250 nM RAP1B-BODIPY-GDP, 50 uM GDP) were dispensed into a 1536-well Greiner black solid-bottom medium binding assay plate. Controls and test compounds (23 nL) were transferred to the plate via a Kalypsys pin tool equipped with a 1536-pin array. The plates were centrifuged at 1,000 rpm for 15 seconds followed by 5 minute incubation at room temperature. The assay plates were read at 5 minute intervals for 30 minutes in the ViewLux plate reader using 480nm excitation and 540nm emission filters. The results were normalized to the […] positive control ATA and DMSO.
Further: nearly all actives have a fitted effect of over 50% in size.
Potency means the concentration at half of the fitted maximal effect; tags describe the fitted curve by direction and shape.

Chain of UniProt O95398 (O95398 whole entry, looked up): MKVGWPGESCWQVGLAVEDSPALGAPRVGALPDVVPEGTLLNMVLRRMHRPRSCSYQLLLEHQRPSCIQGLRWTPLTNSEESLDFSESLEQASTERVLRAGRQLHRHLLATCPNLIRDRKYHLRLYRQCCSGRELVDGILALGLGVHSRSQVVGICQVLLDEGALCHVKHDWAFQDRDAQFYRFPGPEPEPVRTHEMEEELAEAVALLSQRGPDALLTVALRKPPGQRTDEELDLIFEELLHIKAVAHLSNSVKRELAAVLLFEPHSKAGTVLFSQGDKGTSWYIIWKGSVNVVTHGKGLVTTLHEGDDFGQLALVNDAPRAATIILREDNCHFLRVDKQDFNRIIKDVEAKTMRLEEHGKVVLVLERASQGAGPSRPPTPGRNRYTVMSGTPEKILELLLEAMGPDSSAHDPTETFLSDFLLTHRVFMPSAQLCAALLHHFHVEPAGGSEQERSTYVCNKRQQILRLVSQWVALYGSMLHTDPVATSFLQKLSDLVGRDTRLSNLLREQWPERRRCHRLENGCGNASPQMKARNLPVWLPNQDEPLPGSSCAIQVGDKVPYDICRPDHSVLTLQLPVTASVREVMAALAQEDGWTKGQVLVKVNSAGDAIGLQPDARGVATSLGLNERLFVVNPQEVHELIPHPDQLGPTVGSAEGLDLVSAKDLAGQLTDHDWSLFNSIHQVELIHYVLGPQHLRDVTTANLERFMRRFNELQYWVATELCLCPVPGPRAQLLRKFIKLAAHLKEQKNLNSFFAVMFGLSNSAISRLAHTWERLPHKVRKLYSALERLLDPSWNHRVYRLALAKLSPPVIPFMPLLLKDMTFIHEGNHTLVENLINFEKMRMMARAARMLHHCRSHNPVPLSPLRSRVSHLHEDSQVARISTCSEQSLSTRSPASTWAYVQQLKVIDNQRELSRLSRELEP

| Compound | Potency | activity change, negative = inhibition |
| --- | --- | --- |
| Oc1ccccc1/C=N/NP(=S)(c1ccccc1)c1ccccc1 | inconclusive [inhibitor, partial curve] | – |
| O=c1[nH]c(O)c(N=Nc2cc([N+](=O)[O-])ccc2O)c(=O)[nH]1 | inconclusive [inhibitor, full curve] | – |
| COc1cc2c(cc1O)[C@@H]1Cc3ccc(OC)c(O)c3CN1CC2 | – | inactive: -29.9% |
| CN(C)C(=O)Oc1cc(=O)n2c3c(cccc13)CCC2 | inconclusive [inhibitor, single point] | – |
| C/C(=N\NP(=S)(c1ccccc1)c1ccccc1)c1ccc(O)cc1O | inconclusive [inhibitor, partial curve] | – |
| C=CCn1c(-c2ccc([N+](=O)[O-])cc2)n[nH]c1=S | inconclusive [inhibitor, partial curve] | – |
| CC(C)c1ccc(N2C(=O)NC(=O)/C(=C\C=C\c3ccco3)C2=O)cc1 | inconclusive [inhibitor, full curve] | – |
| CC[C@]12C=CCN3CCC4(c5cc(Br)c(OC)cc5N(C)C4[C@@](O)(C(=O)OC)[C@@H]1OC(C)=O)C32 (stereo not given in full) | inconclusive [inhibitor, single point] | – |
| C/C1=C\[C@@H](C)C/C=C/[C@H]2[C@@H]3O[C@]3(C)[C@@H](C)[C@H]3[C@H](Cc4c[nH]c5ccccc45)NC(=O)[C@]32C(=O)/C=C/C(=O)[C@@H]1O | inconclusive [inhibitor, single point] | – |
| CN1OC[C@@H]2CN[C@H](c3ccccc3Br)C[C@@H]21 | inconclusive [inhibitor, single point] | – |
| Oc1ccc(/C=N/NP(=S)(c2ccccc2)c2ccccc2)c(O)c1O | inconclusive [inhibitor, single point] | – |
| Cc1ccc(-n2c(O)c(/C=C3/C(c4ccccc4)=Nc4ccccc43)c(=O)[nH]c2=O)cc1 | inconclusive [inhibitor, partial curve] | – |
| O=c1[nH]c(=S)[nH]c(O)c1N=Nc1ccc2c(c1)OCCO2 | – | inactive: -6.75% |
| CCCCNC(=O)c1c(N)n(CCCOC)c2nc3ccccc3nc12 | inconclusive [inhibitor, partial curve] | – |
| COc1cc(/C=C/c2nc3ccccc3c(=O)n2-c2cccc(O)c2)ccc1O | active: 50.1 µM | – |
| Brc1ccccc1Cn1c(-c2cncs2)nc2ccccc21 | inconclusive [inhibitor, single point] | – |
| CC(C)Nc1ccc(Nc2ccccc2)cc1 | – | inactive: 1.77% |
| C=C1C(=O)OC2CC3(C)OC3CCC(C)=CC(OC(C)=O)C12 (stereo not given) | – | inactive: 2.21% |
| COc1cccc(N2C(=O)/C(=C/c3ccc(C)o3)C(=O)NC2=S)c1 | inconclusive [inhibitor, single point] | – |
| Nc1nonc1OCCCCOc1nonc1N | inconclusive [inhibitor, partial curve, poor fit] | – |
| O=P(Nc1ccccc1)(Nc1ccccc1)Oc1ccc(Cl)cc1 | inconclusive [inhibitor, single point] | – |
| O=C1NC(=O)N(Cc2ccc(F)cc2)C(=O)/C1=C\c1ccoc1 | inconclusive [inhibitor, full curve, poor fit] | – |

| Compound | Potency | activity change, negative = inhibition |
| --- | --- | --- |
| c1ccc(NC2=NCCS2)cc1 | inconclusive [inhibitor, single point] | – |
| CCOC(=O)c1c(-n2c(C)cc(C=C3C(=O)NC(=S)NC3=O)c2C)sc2c1CCCC2 | inconclusive [inhibitor, partial curve] | – |
| Cc1ccc(-n2c(O)c(C=NCc3ccco3)c(=O)[nH]c2=S)cc1C | inconclusive [inhibitor, single point] | – |
| CCOc1ccc(N2C(=O)/C(=C/c3ccco3)C(=O)NC2=S)cc1 | active: 11.2 µM | – |
| COc1ccc(N2C(=O)/C(=C/c3ccco3)C(=O)NC2=S)cc1 | inconclusive [inhibitor, full curve] | – |
| O=C1NC(=O)N(c2ccccc2)C(=O)/C1=C/c1ccc(Sc2ccccc2)o1 | – | inactive: 10.6% |
| COc1ccc(/C=C2/C(=O)NC(=O)N(c3ccc(C)c(C)c3)C2=O)cc1CN1C(=O)c2ccccc2C1=O | inconclusive [inhibitor, single point] | – |
| CCn1nc(/C=C/c2ccccc2)nc2c(=O)n(C)c(=O)nc1-2 | inconclusive [inhibitor, full curve, poor fit] | – |
| CC12CC1(C)C(=O)N(c1cc(Cl)cc(Cl)c1)C2=O (stereo not given) | inconclusive [inhibitor, single point] | – |
| Cc1ccc(C=C2C(Cl)=C(Cl)C(Cl)=C2Cl)cc1 | inconclusive [inhibitor, partial curve] | – |
| Cc1ccc(N2C(=O)NC(=O)/C(=C/c3ccc(-c4ccc(C(=O)O)c(Cl)c4)o3)C2=O)cc1 | – | inactive: 2% |
| COc1ccc(/C=C2/C(=O)NC(=O)N(c3ccccc3)C2=O)cc1CN1C(=O)c2ccccc2C1=O | – | inactive: 2.43% |
| O=C1NC(=S)NC(=O)C1=Cc1cccc2cc3ccccc3cc12 | inconclusive [inhibitor, partial curve] | – |
| Cc1ccc(N2C(=O)NC(=O)/C(=C\C=C\c3ccco3)C2=O)cc1C | active: 56.2 µM | – |
| Cc1cccc(N2C(=O)NC(=O)/C(=C/c3ccc([N+](=O)[O-])o3)C2=O)c1 | inconclusive [inhibitor, partial curve] | – |
| Cc1ccc(C2CN(C)CC2C(=O)c2ccc(F)cc2)cc1 (stereo not given) | inconclusive [inhibitor, single point] | – |
| C=CCN1C(=O)C2(C(C(=O)OCC)=C(N)Oc3ccccc32)c2c1c1ccccc1oc2=O (stereo not given) | – | inactive: -0.96% |
| NS(=O)(=O)c1ccc(N=Cc2c(O)n(C3CCCCC3)c(=O)n(C3CCCCC3)c2=O)cc1 | inconclusive [inhibitor, partial curve] | – |
| CCCCOc1ccc(CN2CCN(CCO)CC2)cc1 | inconclusive [inhibitor, full curve, poor fit] | – |
| Cc1c(C=O)c2ccccc2n1Cc1cccc(F)c1 | – | inactive: -6.88% |
| CCOc1ccc(N=Cc2c(O)n(CCc3ccc(OC)c(OC)c3)c(=O)[nH]c2=O)cc1 | – | inactive: 2.35% |
| COP(=O)(OC)c1nc(-c2cccc3ccccc23)oc1NCCc1ccccc1 | inconclusive [inhibitor, partial curve, poor fit] | – |

| Compound | Potency | activity change, negative = inhibition |
| --- | --- | --- |
| O=C1CC(=O)N(Cc2ccccc2)C(=O)N1CCCCCCN1C(=O)CC(=O)N(Cc2ccccc2)C1=O | inconclusive [inhibitor, partial curve] | – |
| COc1ccccc1OC(=O)c1ccc(C)c(S(=O)(=O)N2CCOCC2)c1 | inconclusive [inhibitor, partial curve] | – |
| CCOC(=O)CNC(=O)N1Cc2ccc(Br)cc2-n2nncc2C1 | – | inactive: -15.6% |
| O=C1NC(=O)C(=Cc2ccc(-c3ccccc3[N+](=O)[O-])o2)C(=O)N1 | inconclusive [inhibitor, full curve, poor fit] | – |
| COc1cc(/C=C2/SC(=S)N(Cc3ccccc3)C2=O)ccc1OCC(=O)O | inconclusive [inhibitor, partial curve] | – |
| O=C(O)C(NC(=O)c1ccccc1)=C(Cl)Cl | inconclusive [inhibitor, single point] | – |
| NCC(O)c1cc(O)c(O)cc1F (stereo not given) | – | inactive: -2.82% |
| COC(=O)C1=C(c2cccc(OC)c2OC)C[C@@H]2CC[C@H]1N2C(=O)NCc1ccccc1 | – | inactive: -4.69% |
| COc1ccc(CNC(=O)c2sc(=O)n(Cc3ccc(C)cc3)c2C)cc1OC | inconclusive [inhibitor, partial curve] | – |
| CCOc1ccc(N=Cc2c(O)n(Cc3ccccc3)c(=S)[nH]c2=O)cc1 | inconclusive [inhibitor, full curve] | – |
| CN1C(=O)NC(=O)/C(=C/c2ccc([N+](=O)[O-])s2)C1=O | inconclusive [inhibitor, partial curve] | – |
| Oc1ccc(Cl)cc1Cc1ccccc1 | – | inactive: -13.7% |
| CN(C)[C@@H]1C(=O)C(C(N)=O)=C(O)[C@@]2(O)C(=O)C3=C(O)c4c(O)ccc(Cl)c4[C@@](C)(O)C3C[C@@H]12 (stereo not given in full) | inconclusive [inhibitor, partial curve] | – |
| CNc1ccccc1 | inconclusive [inhibitor, single point] | – |
| COc1cc(CNCCc2ccc3c(c2)OCO3)cc(OC)c1OC | inconclusive [inhibitor, partial curve] | – |
| CCCCN1C(=O)/C(=C/c2ccc(N(C)C)cc2)C(=O)N(Cc2ccco2)C1=O | inconclusive [inhibitor, partial curve] | – |
| Cc1cc(/C=C2/C(=O)NC(=O)N(Cc3ccco3)C2=O)c(C)n1-c1ccccc1 | inconclusive [inhibitor, partial curve] | – |
| O=C1NC(=O)N(c2cccc(F)c2)C(=O)/C1=C/c1ccc(N2CCOCC2)cc1 | inconclusive [inhibitor, partial curve] | – |
| O=C(O)c1cccc2c1NC(c1cccc([N+](=O)[O-])c1)C1CC(Sc3ccccc3[N+](=O)[O-])C(Cl)C21 (stereo not given) | inconclusive [inhibitor, partial curve] | – |
| Cc1ccc(N=Nc2cc(C)ccc2N)cc1 | inconclusive [inhibitor, full curve, poor fit] | – |
| CCCCn1c(NS(=O)(=O)c2ccc(C)cc2)c(C(=O)OCC)c2nc3ccccc3nc21 | inconclusive [inhibitor, single point] | – |

Reference: PubChem BioAssay AID720709 (National Center for Advancing Translational Sciences (NCATS), 2013)
